Data on 84 compounds can be found in paper PMC4336329 (PLoS ONE, 2015).

In all, about 310,000 compounds went through this assay and about 2,200 (0.71%) showed an effect of 50% or more. Effects have a minus sign here. The list shows a part of the results.

In this test the target is human ether-à-go-go-related gene (hERG) potassium channel (human, UniProt Q12809). In words: primary screen, population patch clamp on CHO cells stably expressing hERG.
Sequence of human ether-à-go-go-related gene (hERG) potassium channel (Q12809 whole entry, looked up): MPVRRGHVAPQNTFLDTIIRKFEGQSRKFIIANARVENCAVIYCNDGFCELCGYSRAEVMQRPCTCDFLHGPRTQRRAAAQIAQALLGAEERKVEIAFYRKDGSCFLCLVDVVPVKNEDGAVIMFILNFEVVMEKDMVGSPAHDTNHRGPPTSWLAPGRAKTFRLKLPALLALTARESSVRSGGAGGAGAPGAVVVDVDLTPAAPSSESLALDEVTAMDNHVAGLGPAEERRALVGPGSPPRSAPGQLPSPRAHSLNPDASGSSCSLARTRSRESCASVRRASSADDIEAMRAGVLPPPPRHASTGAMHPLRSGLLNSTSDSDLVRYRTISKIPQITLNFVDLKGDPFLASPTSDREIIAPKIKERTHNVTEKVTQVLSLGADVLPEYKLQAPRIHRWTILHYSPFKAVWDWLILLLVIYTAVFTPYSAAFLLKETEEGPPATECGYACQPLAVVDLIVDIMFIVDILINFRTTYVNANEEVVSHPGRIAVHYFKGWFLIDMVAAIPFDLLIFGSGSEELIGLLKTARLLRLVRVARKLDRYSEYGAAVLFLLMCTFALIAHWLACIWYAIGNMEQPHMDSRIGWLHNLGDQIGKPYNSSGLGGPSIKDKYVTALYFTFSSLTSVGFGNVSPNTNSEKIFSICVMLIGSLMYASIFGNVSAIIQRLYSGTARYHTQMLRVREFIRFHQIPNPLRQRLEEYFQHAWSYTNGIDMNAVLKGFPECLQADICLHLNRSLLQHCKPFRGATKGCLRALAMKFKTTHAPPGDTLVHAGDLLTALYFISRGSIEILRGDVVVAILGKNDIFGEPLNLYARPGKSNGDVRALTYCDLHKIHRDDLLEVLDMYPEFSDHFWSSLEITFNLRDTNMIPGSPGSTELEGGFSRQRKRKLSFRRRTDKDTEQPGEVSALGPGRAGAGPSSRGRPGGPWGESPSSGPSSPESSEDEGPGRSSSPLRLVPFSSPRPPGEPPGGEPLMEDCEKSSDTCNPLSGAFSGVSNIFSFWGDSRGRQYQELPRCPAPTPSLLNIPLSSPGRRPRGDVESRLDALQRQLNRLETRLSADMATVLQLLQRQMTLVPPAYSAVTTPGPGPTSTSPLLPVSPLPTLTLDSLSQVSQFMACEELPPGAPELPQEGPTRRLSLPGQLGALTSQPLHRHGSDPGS
With `COc1cc(/C=N/Nc2nc(=O)[nH]nc2C)ccc1O`, the “hERG current change (%, negative = inhibition) at 1uM” value was determined as 7.08%.
Take `Cc1cccc(N2CCN(C(=O)c3ccc4nc(-c5ccco5)c(-c5ccco5)nc4c3)CC2C)c1` (stereo not drawn): the “hERG current change (%, negative = inhibition) at 1uM” value was 8.47%.
To `CCCCCOC(=O)CSc1nc2c(c(=O)[nH]c(=O)n2C)n1CCc1ccccc1` belongs 12.6%.
To `Cc1ccccc1C(=O)c1cccn1CC(=O)NCCCN1CCCCC1` belongs 0.894%; to `Cc1ccc(S(=O)(=O)CCC(=O)OCC(=O)N2CCN(S(=O)(=O)c3ccc(Cl)cc3)CC2)cc1`, 1.35%.
With `COc1cccc(C(=O)C2CCCN(Cc3cccc(C)n3)C2)c1` (stereo not drawn) the figure was -30.1%; with `O=C1CN=C(c2ccc(Br)cc2)c2c(sc3c2CCCC3)N1CCN1CCCCC1`, -3.22%.
In the case of `CSc1nc(N)nc(SCCS(=O)(=O)c2ccc(Cl)cc2)c1C#N`, the “hERG current change (%, negative = inhibition) at 1uM” value amounted to 3.68%.
Turning to `COc1ccc(-c2cc(C(=O)NCCN3CCOCC3)c3cc(C(C)C)ccc3n2)cc1`, the “hERG current change (%, negative = inhibition) at 1uM” value is 22.1%.
Regarding `COc1ccc(N2CCc3c(C)nc4c(OC)cc(OC)cc4c32)c(OC)c1`, the “hERG current change (%, negative = inhibition) at 1uM” value is reported as -47.6%.
On to `COc1ccccc1NC(=O)CSc1nncn1N`, for which the “hERG current change (%, negative = inhibition) at 1uM” value was found to be 8.74%.
To `O=S(=O)(Nc1ccccn1)c1ccc(C(F)(F)F)cc1Cl` belongs 15.2%; to `CCCn1c(SCC(=O)N2CCN(c3ccccc3)CC2)nc2ccccc2c1=O`, -4.8%; to `COC(=O)NC1CSCC1OC(=O)c1ccc(Br)cc1` (stereo not drawn), -5.41%.
On to `CCn1c(CNC(=O)COC)nc2ccccc21`, for which the “hERG current change (%, negative = inhibition) at 1uM” value was determined as 1.78%.
Regarding `O=[N+]([O-])c1cc(C(F)(F)F)cc([N+](=O)[O-])c1NCc1cccnc1`, the “hERG current change (%, negative = inhibition) at 1uM” value was -4.94%.
For `Cc1ccc2oc(=O)c3cnn(CC(=O)NC4CCCCC4C)c3c2c1` (stereo not drawn), the “hERG current change (%, negative = inhibition) at 1uM” value was 5.74%.
On to `COc1ccc(-c2ccc(Nc3ccc(C(=O)N4CCOCC4)cc3)nn2)cc1OC`, for which the “hERG current change (%, negative = inhibition) at 1uM” value is listed as 15.5%.
To `Cc1ccc2oc3c(c(=O)c2c1)C(c1cccc(Cl)c1)N(CCCN1CCOCC1)C3=O` (stereo not drawn) belongs -18.4%; to `COc1ccc(/C=C/C(=O)OCC(=O)c2ccc(S(=O)(=O)N3CCCCC3)cc2)cc1OC`, 12.6%; to `CCn1cc(/C=N\NC(=O)c2c[nH]c3ccccc23)c(C)n1`, 4.79%.
With `CN(C)c1ccc(-c2cccc(C3CC=CC4C3C(=O)N(Cc3ccccc3)C4c3ccc4ccccc4c3)c2)cc1` (stereo not drawn) the figure was 14.6%.
With `CCS(=O)(=O)N1CCN(C(=O)c2ccccc2)CC1` the figure was 7.27%.
In the case of `CC[C@H](C)[C@H](NS(=O)(=O)c1ccc(C)cc1)C(=O)N1CCC(C(=O)N[C@@H](C)C(=O)O)CC1`, the “hERG current change (%, negative = inhibition) at 1uM” value was 13.9%.
With `C[N+]1(CCNC(=O)/C=N/O)CCCCC1.[I-]` the figure was 13.3%.
As for `Cc1cc(C)c2c(=O)[nH]n(C3CCCCCC3)c2n1`, the “hERG current change (%, negative = inhibition) at 1uM” value amounted to 4.6%.
With `CN(C)C(/C=C/Nc1ccc(O)cc1)=C(C#N)C#N` the figure was 18.1%; with `Cc1ccc(CSc2nnc3nc(C)cc(C)n23)cc1`, -2.19%; with `Cc1ccc(Cn2nc3c(cc2=O)CCc2ccccc2-3)cc1`, 10.2%.
With `CC(=O)c1ccc(NC(=O)/C=C/c2ccc(C)cc2)cc1` the figure was 7.02%; with `COc1ccc(CCN(Cc2cccs2)S(=O)(=O)c2ccc(S(=O)(=O)N3CCCCCC3)cc2)cc1OC`, 15.6%; with `CCC1(CC)C(=O)C2=C3C1[C@H](C(=O)OC)CC(C(=O)OC)C[C@H]3n1c(=O)n(-c3ccccc3)c(=O)n1[C@H]2C` (stereo partly drawn), 11.1%.
To `COc1ccc(OC)c(/C=C/C(=O)c2ccc3c(c2)OCCO3)c1` belongs 9.4%; to `COc1ccc(NS(=O)(=O)c2cccc(C(=O)NNC(=O)CNC(=O)c3cccc(C)c3)c2)cc1`, 2.98%; to `CC(=O)c1ccc(NC(=O)C(C)n2nc(-c3ccccc3)c3cc(Cl)ccc32)cc1` (stereo not drawn), 4.55%.
As to `C=C[C@H]1CN2CC[C@H]1C[C@@H]2[C@@H](O)c1ccnc2ccccc12`, the “hERG current change (%, negative = inhibition) at 1uM” value was -4.99%.
`CC(C)Cc1nc2oc3c(=O)[nH]cnc3c2c2c1CCC2`: the “hERG current change (%, negative = inhibition) at 1uM” value is recorded as 0.411%.
For `O=C(CSc1nnc(-c2ccco2)n1-c1ccccc1)NCc1ccc2c(c1)OCO2`, the “hERG current change (%, negative = inhibition) at 1uM” value is on record as -47.7%.
As for `CN(c1ccccc1)S(=O)(=O)c1cccc(C(=O)Nc2ccc3c(c2)CCC3)c1`, the “hERG current change (%, negative = inhibition) at 1uM” value worked out at 11.2%.
To `O=S(=O)(c1ccc(N2CCOCC2)nc1)N(Cc1ccccn1)Cc1ccccn1` belongs 6.77%; to `CSc1nc2ccsc2c(=O)n1-c1cccnc1`, 0.288%.
For the compound `O=C(CCc1ccc(O)c(O)c1)NNC(=S)Nc1ccc(Br)cc1Cl`, the “hERG current change (%, negative = inhibition) at 1uM” value stood at 10.7%.
As to `CCOc1ccc(NC(=S)NC(=O)/C=C/c2ccc(OC)c(OC)c2)c([N+](=O)[O-])c1`, the “hERG current change (%, negative = inhibition) at 1uM” value was determined as 13.9%.
`Cc1ccc(C(=O)NCC(c2cccs2)N(C)C)cc1S(=O)(=O)N1CCOCC1` (stereo not drawn): the “hERG current change (%, negative = inhibition) at 1uM” value is 11.2%.
As for `CCn1c(O)c(/C=N/N2CCOCC2)c(=O)n(CC)c1=S`, the “hERG current change (%, negative = inhibition) at 1uM” value amounted to 4.76%.
Take `COC(=O)c1ccccc1NC(=O)CSc1nnc(Cc2ccc(Cl)cc2)o1`: the “hERG current change (%, negative = inhibition) at 1uM” value is reported as -0.104%.
To `Cc1ccc(-c2nc3cc(Cl)ccc3o2)cc1` belongs 10.4%.
With `CCN(CC)C(=O)c1cccc(NC(=O)CC23CC4CC(CC(C4)C2)C3)c1`, the “hERG current change (%, negative = inhibition) at 1uM” value amounted to 7.57%.
As to `O=C(NN=C1CCCC1)c1ccc(Cl)cc1`, the “hERG current change (%, negative = inhibition) at 1uM” value was found to be 2.23%.
As to `Cc1ccc2c(c1)sc1nc(=O)n(-c3ccccc3)c(=O)n12`, the “hERG current change (%, negative = inhibition) at 1uM” value stood at 5.98%.
With `Cc1c(Cl)cccc1NC(=O)CSc1nnc(C)n1CC1CCCO1` (stereo not drawn), the “hERG current change (%, negative = inhibition) at 1uM” value stood at 13.5%.
With `CCOC(=O)c1nn(-c2ccc(F)cc2)c2nc(-c3ccccc3)c(C#N)c(=O)n12` the figure was 39.3%; with `Clc1cccc(-c2ccc(/C=N/n3cnnc3)o2)c1Cl`, 6.11%.
With `Cc1sc2nc(CSCC(=O)N(CCC#N)c3ccccc3)[nH]c(=O)c2c1C` the figure was 8.33%; with `C#CCOCCOCCOCCNc1nc(N2CCN(C(=O)CCCCCCCCCCNC(=O)Cn3cc(C[C@@H](C)O)nn3)CC2)nc(N2CCN(C(=O)CCCCCCCCCCNC(=O)[C@H](CCCCN)n3cc(CCCC(=O)O)nn3)CC2)n1`, 10.8%; with `CC(=O)Oc1ccc2c(c1)C(=O)c1ccccc1C2=O`, 12.9%.
With `Cc1cccc(NC(=O)C(C)C(=O)c2ccccc2)c1` (stereo not drawn) the figure was 13.5%; with `OCCn1c(C(F)(F)F)nc2ccccc21`, 7.56%.
With `c1ccc(CSc2nnc(-c3ccco3)c(-c3ccco3)n2)cc1`, the “hERG current change (%, negative = inhibition) at 1uM” value was 7.67%.
With `CCO[C@H]1OC(C(=O)Nc2ccccc2)=C[C@@H](c2ccc(C(F)(F)F)cc2)[C@@H]1CCCO` the figure was 6.01%.
Turning to `CC(=O)Nc1ccc(S(=O)(=O)Nc2ccccc2C(=O)N2CCCCC2)cc1`, the “hERG current change (%, negative = inhibition) at 1uM” value is recorded as 14.9%.
To `S=C(Nc1ccc(Cl)cc1)Nc1cccc2cnccc12` belongs 3.31%.
In the case of `COCCNC(=O)C(c1ccc(O)cc1)N(Cc1ccco1)C(=O)CCC(=O)Nc1nccs1` (stereo not drawn), the “hERG current change (%, negative = inhibition) at 1uM” value is given as 0.253%.
Consider `CCOC(=O)c1ccc(NS(=O)(=O)c2ccc3c(c2)CCCN3C(C)=O)cc1`, for which the “hERG current change (%, negative = inhibition) at 1uM” value stood at 10.2%.
To `COc1ccc(Cc2nnc(-c3ccc(F)cc3)o2)cc1OC` belongs 1.32%; to `COc1cccc(N/C=C/c2onc(C)c2[N+](=O)[O-])c1`, 8.87%.
With `CN1CCN(C2=Cc3ccccc3Sc3cc(F)c(Cl)cc32)CC1.O=C(O)/C=C\C(=O)O` the figure was 4.3%; with `Cc1cc(S(=O)(=O)NC2CCCCC2)ccc1OCC(=O)N1CCOCC1`, 13.5%.
With `O=C(CCN1CCN(C(=O)c2ccccc2)CC1)c1ccc(Br)cc1` the figure was 0.232%; with `Cc1ccc(S(=O)(=O)NC(=O)Nc2nnc(C)s2)cc1`, 12.7%.
For the compound `COCCn1c(=S)[nH]c2cc(C(=O)N3CC(C)CC(C)C3)ccc2c1=O` (stereo not drawn), the “hERG current change (%, negative = inhibition) at 1uM” value is on record as 17.2%.
With `CC1(c2nnc(-c3ccccc3)o2)CC(c2ccc(Cl)cc2)=NO1` (stereo not drawn) the figure was 1.16%; with `Cc1ccc(CNC(=O)CN(Cc2cccs2)C(=O)C2(C)CC(=O)N=C3C=CC=CN32)cc1` (stereo not drawn), 14.2%; with `O=C1c2cccc3cccc(c23)C(=O)N1c1nncs1`, 5.54%.
With `Cc1ccc(O)c(CNn2cnnc2)c1`, the “hERG current change (%, negative = inhibition) at 1uM” value is listed as -0.43%.
With `Cc1ccc(S(=O)(=O)Oc2ccc(/C=C(/NC(=O)c3ccccc3)C(=O)NCCC(=O)O)cc2)cc1` the figure was 10.2%; with `O=c1oc2ccccc2cc1-c1cn(-c2ccccc2)c(=S)[nH]1`, 9.58%.
For `COc1cc(C(c2c(C(=O)O)[nH]c3ccccc23)c2c(C(=O)O)[nH]c3ccccc23)ccc1OCc1ccccc1`, the “hERG current change (%, negative = inhibition) at 1uM” value was found to be 14%.
Take `CN(CC(=O)Nc1ccccc1Cl)C(=O)c1ccccc1SCC(=O)N1CCCC1`: the “hERG current change (%, negative = inhibition) at 1uM” value is recorded as -0.529%.
For `Cc1cccc(C)c1NC(=O)C1(N(Cc2ccco2)C(=O)c2ccccn2)CCCC1`, the “hERG current change (%, negative = inhibition) at 1uM” value stood at 15.1%.
With `CCOC(=O)Cc1csc(NC(=O)CN2CCN(CC)CC2)n1` the figure was 12.1%; with `CC(=O)c1c(C(C)=O)c(C)n(-c2cccc3cccnc23)c1C`, 9.1%.
`Cc1c(C(=O)N2CCN(Cc3ccccc3)CC2)oc2c1C(=O)CCC2`: the “hERG current change (%, negative = inhibition) at 1uM” value is on record as -0.367%.
As to `COC(=O)[C@@H](NCc1cccc(CN([C@H](C(=O)OC)C(C)C)S(C)(=O)=O)c1)C(C)C`, the “hERG current change (%, negative = inhibition) at 1uM” value was determined as 6.74%.
